Results: PMC10726135
This is one part of the list. At the low end of the ranking the order means little. The protein was read in a cell extract, so binding may be indirect.

Biological target: T1, HNF4alpha2 (COS-7 nuclear extract) (UniProt P41235)
T1 sequence: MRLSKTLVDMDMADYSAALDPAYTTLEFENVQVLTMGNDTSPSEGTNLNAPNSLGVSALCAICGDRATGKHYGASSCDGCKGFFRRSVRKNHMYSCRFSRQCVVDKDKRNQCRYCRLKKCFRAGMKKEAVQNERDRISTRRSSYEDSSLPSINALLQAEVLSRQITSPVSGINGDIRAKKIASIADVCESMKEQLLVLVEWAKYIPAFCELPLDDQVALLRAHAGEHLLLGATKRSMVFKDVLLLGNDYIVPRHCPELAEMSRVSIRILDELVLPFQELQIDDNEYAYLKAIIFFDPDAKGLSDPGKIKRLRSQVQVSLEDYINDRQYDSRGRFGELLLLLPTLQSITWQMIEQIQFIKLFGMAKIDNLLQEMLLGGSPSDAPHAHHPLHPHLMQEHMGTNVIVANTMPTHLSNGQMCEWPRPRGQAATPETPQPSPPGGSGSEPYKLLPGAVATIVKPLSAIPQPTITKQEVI
Assay: protein-binding microarray
Settings: COS-7 nuclear extract on double-stranded Agilent 4x180k PBM; binding buffer, salt, pH and temperature not given; high values mean tight binding; double strand, one strand shown; sequences stand for … in …GCCTAGGGAGATTAGAGTATCGGTCGA

Row | Sequence | binding signal (log2 normalized intensity)
1 | AGTATCATGTTGGCATTCCAGGATGAAGGA | 0.674
2 | CTGCCTTATCGTATTCTTATCAATACCTGT | 1.29
3 | AGGCAGCCACCCACAAGCCAAGGAGAGAGG | -1.07
4 | CACTGTTTATTTTGTGTGATACTCAAGGCA | 1.83
5 | TTAAGGCCAGATGGCCACCCTTCAGCAAAT | -1.02
6 | GCTGTCCAAGGTGCTAGCTCCGACTCAGTG | -1.09
7 | TAATGGCAGAATCAAAGGTCAAAATATCTG | 3.33
8 | GTGAGGAATGCAACCACACCAACATGGACT | 1.61
9 | GACACCTTCAGGGCTGAGCCCACAGTCCAG | -1.22
10 | TAGGGCCCATGCCCTTAGCCACTGCATGAT | -1.03
11 | GCTGTGTGGCATGGTGTTTTGCCTTACACA | 0.593
12 | TGAACTGACTGGGGTTAACGTCCAAAGGTA | 2.67
13 | CTTTGAGCATCGCTGGACTCTGCTCCTAAG | 3.81
14 | ATACTGCCTTTCTAGAACCAGAATTCCAGA | -1.08
15 | ATTCTTGTCAATGACCCTAATGGGGTACTT | 1.65
16 | GGCTGTGAAATATTTGAGTTCTTCAAGTCA | 1.24
17 | TCAGACAAGTTGCAGGGATGGACTTTAATC | 6.09
18 | CCTTTGAGATAGCTATGATTATCCTTATCT | 0.316
19 | GAGTGTATAGTGGCACTGTTATGACCCATT | 2.32
20 | AGGAAACTCTTTCCTAACAGTGAATGTTTC | 0.887
21 | ATGGGCCCCAGTAAAAACAGTGGGCCTTAA | -1.11
22 | AGATAAAAAGGCTAGAGCGCGCTGGAATCT | -1.11
23 | ACTTGAAGACATTCCAAGAAGAGCCAATAG | -1.17
24 | GCTGCTCAGTTTAAGTCAAAATATAAGGTC | 1.12
25 | GAGGACTTTGATCAGCAATGGAGAGTGATC | 2.33

Row | Sequence | binding signal (log2 normalized intensity)
26 | CCTAAACAGCAACTGTAGTGCATAGTGGGT | 1.19
27 | ACTGTCTAGCTGTGTAACCCTGGACAAGTT | -0.0459
28 | CCAGTCTAGGTCTGGAAGGAAGGAGGGAGG | -1.06
29 | ACACTCAAGGCAAGAGAGTCATAAAGGGCA | -0.815
30 | GTGCAATAACACCTATGTGCAAAATACCTG | -1.07
31 | ATATCCTTTAGCTCCTGGGCCCAGATATAC | 0.196
32 | TTAGAGCTGGGGCACAATGCTGCAATTCTC | -1.17
33 | TGCACTTTGCCCTCTCTTCAGCACCTTTTA | 4.51
34 | GGTCAATATTTTCTTTGTGCTATTTTTGGC | 1.61
35 | GGCCCTCACGTGGCCCTGGCATTTGGCTCA | -1.22
36 | TTAATGTGCTTGTCTGACTGCTGCCAAAGG | -0.631
37 | TTCCCTCCTCTTCCCTACCCCCTGGGAGTA | 4.05
38 | TCTATCTGTATTCTGAAGCCCTACAGCCCA | -0.864
39 | AGCAGCATTGGACCCTCCCAGCCAAACCCC | 4.34
40 | TGAGAGCAGAGGCTGGGGCCCTCTTCCAGC | -1.02
41 | CAGTGTCAGGACCTTGCTCCTGTTCCTTTG | 1.49
42 | ACTGGCCCAGCGGATTAATATCCAGAGGCT | -1.13
43 | CATTGATAATTCAGTTTCATTGCACTTTGC | 4.01
44 | CTGGAACCATCAGGATTCCAGAGGAAGCAG | -1.08
45 | TATTGAACAAAGATTGCTTGCCAGTTCCCT | -1.03
46 | ACTTAGGATCAGTAGCATTATCTCCTTGCT | -1.02
47 | TTTGTGATTACATTGAGTCCACTGAGATCA | 1.31
48 | AAATGGAACAGTAAGTGTTAATGGCACTTC | 0.382
49 | TTCCACCTTTGCCCTCCAAACTGAGAGATT | 2.62
50 | GAAACATGCGATACTTGACCTGCAATGAAA | -0.0692

Row | Sequence | binding signal (log2 normalized intensity)
51 | TGCTTTGGGTGGATTTGGAGATCAGAGTCC | 3.16
52 | AATGATAAGATATATGACTCTAGATTGTTT | 0.662
53 | AGGCTTTAGATAAGGTATGTGGGAGCGGGG | -0.539
54 | GAGAGCAAGGGGGAAGCTGCTAATTGCTTG | -1.1
55 | CCTATGTCTACGTCTTGTCTCTTTTGTCCA | 2.04
56 | GTTGCACTCACTAGCATTAGGACCTGTTTG | 0.396
57 | GCTGTTACTCTAGTACTAGGCAGCATAGGG | -1.07
58 | CCCTACTGTACCCTATGCACCCCACAGTGC | 2.11
59 | TGAGACATGAATCCATCCCACCTCACTTAT | 1.78
60 | TATGTTAGACCAGCCAATTCTACTGGAAGT | 0.295
61 | TCTTCAGGAGGCACTGATAAGCGTATTTCA | -0.599
62 | TGGAATGCAAGACCTCAGCCCTCAGGGGCC | -1.15
63 | ACCCACCCACCTATGTCCTTATCCTCATTG | 0.843
64 | CATAGATCCCACCATTCCCAGTTGTCTGAT | 1.06
65 | CCTGACCCCCAGTGGAATGTGCCCTTTGAC | 4.95
66 | ACAGCAACTGTAGTGCATAGTGGGTTTCGG | 0.973
67 | GTCCATGCTATTAAGCACTAGAAAGTCTTG | -0.97
68 | GGTGGCTCCCCCAGGCGACTGGGCCAGGAG | -0.383
69 | AAGCTAAATACCCTCTTTAGGGTAGCCTGG | 0.376
70 | ACCAGGGAAATTACCCTCTAATGGTATTCA | -0.623
71 | AGGAATGCTATCTAGCATGACAAGAATACG | -1.16
72 | TCAACTGTTGTGGACCACGTGGCTAGATTG | 1
73 | AGCCCTTATATCCACATGGGTCCAAAGTTC | 8.54
74 | ATGGCACAGAGGAGGGACGACTTACTTTTA | -1.1
75 | GCCCGAGCTGTGCGGTAGGCATTGAGGCAG | -1.19

Row | Sequence | binding signal (log2 normalized intensity)
76 | TCTCCGCTGGCCTGTCTCCTGGCCTATTGT | 1.44
77 | AGTGACGTGCAGAGGAGCAACTCATTCACT | -1.08
78 | AGAGATGTCAGCCCAAGATAACCTCCCCTC | 3.82
79 | TAGAGTAACCATTCTTTCTGAGAAAAGCTG | -0.984
80 | CACCCTTCTATCCCCTTATCTAAATGGAGT | 1.74
81 | TGAATAAACAAATAATGGCTTTTGCCCTCA | 3.4
82 | TTTCTGTTTGTCTTACTGTGTTGTCGTATT | 2.64
83 | TTTTTTTTTTTTTAACGGTCTGCCCTCTTG | 3.2
84 | AGGCCCCAACATTCCAGAGAAGCACATCCA | -1.03
85 | ATCAAGGATTTTTTCTTGGACTTTGGTCAT | 8.1
86 | CTGGGGCCCCACTGGGGTGGAGATGCCGTC | -1.13
87 | GAGCAGCTGGTGGAGGCGGTGCCATTCACA | -1.21
88 | TCAGAAGTCCAACATTAGTATCACTGTGAA | 1.29
89 | CTGCTGTTGCACCTCTTATCAAGCGTGCAC | -0.441
90 | GGGCCGGGAAACGCCCTCGGCGCGCACCCA | -1.17
91 | GCCTGTTTCCCTAGCTTATATCCCCTGCCT | 2.53
92 | AAGGTCAGGATCTCAGCCGCGCGGCTTCAG | -0.906
93 | GTCGCAGAAAACACAGAGATCTGATCAAAG | -1.12
94 | TTCAAGGAATGCAGCTCAGACTGCTTCTCT | -1.02
95 | ACTTTGATAGGCACAATCAGCAAACACAGA | -1.19
96 | GCTGCTGAAACATTCAACTGACACTTGTTT | 0.226
97 | GCCTTATACAACCTCTGTAATAACTGCAGT | 0.323
98 | GAATGTGGGAAGCTGGCACAGCAGATGCTG | -1.05
99 | AGATAAACATGAAACAGTCACAGTTATCAG | -1.05
100 | TTAAATAGCTCATTAAGCTTAGCGTTATCA | -0.66

Row | Sequence | binding signal (log2 normalized intensity)
101 | ACACAATATTGACATTCCAGCCTCCAGCTA | -1.16
102 | CCACCCCCTCTCCTCCCTCGGCCGGCCCGG | 4.59
103 | CTTTGATCATATGCATTTCCCTAGATCACT | -0.88
104 | TTAATAGAAGAAAGCCCTTTTTGGAATGTG | 0.655
105 | TGATCTTTACCCTGGAATGCTGTTAGCACT | 0.538
106 | ATCTCATCCTGTGACCAAGAATGTCTAACC | 1.17
107 | ATAAGAAAGCAAAGTCCAACACAGAAGCCT | 1.38
108 | CTGCGCATACCATATGCATTCCTGCCTCAG | -1.09
109 | GGATCCCATTCATGTGGGTCAACAGACAAA | 0.575
110 | GTAGAGGTGATTTCAGACTATTTTATTTTC | -1.1
111 | AACTCTTTACACAGTTCTGATACATTGGAC | 3.08
112 | ATAACACAACCCCTACTGTACCCTATGCAC | 3.03
113 | AGACATCGACCTTTGTGGGCTTCAGACATT | 1.71
114 | CCTATGAGTCTGTAAAGTCAAAAACCAGTT | 1.08
115 | GACTGCGCTCCCAGAAGCCTCCGGTGTACC | -1.09
116 | GTGAGTAGGTTAGATAGGAATCTGGATGGC | 0.0125
117 | GAGAGTTGCACCCAGGCCGTTGGACCAAGC | -0.68
118 | GCAGAAAGGGCATGGATTTAGATAAGAGGC | -0.975
119 | ACTCCCTGACGCCATCTGGCGTCCCCCACC | 4.27
120 | GTCCCTGGATTGTGTTGCACTGTTTGCATA | 0.832
121 | AAAAGATGGAACAAGCCAGGTGTGCAGAGA | -0.804
122 | TAGCTTTCCCACCAAACCTGAAAAACCTCT | -0.921
123 | TAAAAATGCCTTTCATCTTTGAGAAAACTC | -0.684
124 | CAGGAGTCGGGAGGTAGGGGTGGCGGGTTG | 0.616
125 | AGTTCCAATAGCAAAACCTGATGTTTGGAC | 1.86

Row | Sequence | binding signal (log2 normalized intensity)
126 | CTTGTCCTTGACCCTTCCTCCCATTTGCTG | 2.29
127 | AGAGGCCTTTGTGCTGACTAAGAGGAGAAG | -1.11
128 | GGCTAAAGATAACCTAGAAAGGAGAGATCA | -1.11
129 | TACCTTTCCTGCATTAACATCAACATGGAC | 2.1
130 | TTATCTTCCTCTGGCATCTGGTCAGGGGTC | 3.51
131 | TTCAATTATTTACTTTAGTTAGAGTCACTG | 0.822
132 | TTGGGCTGTGTTTTGCCCCTGCAGAGTTTT | 2.3
133 | GCTTCCAAGGGGAATGTGGATGCTGGAATG | 0.986
134 | AGAGGAAAGATGGGGATATAATCATTCATG | -1.16
135 | GCATTCCACATTCTCCACTGGGAAGTAGAA | -0.872
136 | CTTCTGAGATGGAGCATGATGAAATTTCCT | -1.19
137 | CCATGCCACAGAATCGCCCCACCCTGCCTG | 2.66
138 | AATGGAGTTTGGTTTAAAGTTCAAGTCATA | 2.62
139 | AACTTCTTGGCCTGCATAGCACTTTCATAA | -1.05
140 | TACCTGCCTGAGCTATCTGTTTGAGGTTCA | 1.54
141 | TGTTTGAATTGTGATAATAAATGTGTTTCA | 1.63
142 | GACTTTGATCTTGCTGCTCTCGCCTGGAAG | -1.09
143 | TTCATGTGTGGTGCAGATTCCACACTGGCT | -0.319
144 | TGACTGGAGCAGAGCGATCAAAGGTCACAG | 6.52
145 | ATTTTCAGCCACCTTTATCTGATCAGAAAT | 0.329
